Test results published in PMC4336329 (PLoS ONE, 2015).
Hit rate of the full screen: of about 310,000 compounds, about 14,000 (4.5%) showed an effect of 50% or more. Effects have a minus sign here. The list shows a part of the results.

What follows are compounds tested against human ether-à-go-go-related gene (hERG) potassium channel (human, UniProt Q12809) (assay: primary screen, population patch clamp on CHO cells stably expressing hERG).
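Note: peak tail current of the secondary pulse compared with the same well before compound.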

Sequence of human ether-à-go-go-related gene (hERG) potassium channel (Q12809 whole entry, looked up): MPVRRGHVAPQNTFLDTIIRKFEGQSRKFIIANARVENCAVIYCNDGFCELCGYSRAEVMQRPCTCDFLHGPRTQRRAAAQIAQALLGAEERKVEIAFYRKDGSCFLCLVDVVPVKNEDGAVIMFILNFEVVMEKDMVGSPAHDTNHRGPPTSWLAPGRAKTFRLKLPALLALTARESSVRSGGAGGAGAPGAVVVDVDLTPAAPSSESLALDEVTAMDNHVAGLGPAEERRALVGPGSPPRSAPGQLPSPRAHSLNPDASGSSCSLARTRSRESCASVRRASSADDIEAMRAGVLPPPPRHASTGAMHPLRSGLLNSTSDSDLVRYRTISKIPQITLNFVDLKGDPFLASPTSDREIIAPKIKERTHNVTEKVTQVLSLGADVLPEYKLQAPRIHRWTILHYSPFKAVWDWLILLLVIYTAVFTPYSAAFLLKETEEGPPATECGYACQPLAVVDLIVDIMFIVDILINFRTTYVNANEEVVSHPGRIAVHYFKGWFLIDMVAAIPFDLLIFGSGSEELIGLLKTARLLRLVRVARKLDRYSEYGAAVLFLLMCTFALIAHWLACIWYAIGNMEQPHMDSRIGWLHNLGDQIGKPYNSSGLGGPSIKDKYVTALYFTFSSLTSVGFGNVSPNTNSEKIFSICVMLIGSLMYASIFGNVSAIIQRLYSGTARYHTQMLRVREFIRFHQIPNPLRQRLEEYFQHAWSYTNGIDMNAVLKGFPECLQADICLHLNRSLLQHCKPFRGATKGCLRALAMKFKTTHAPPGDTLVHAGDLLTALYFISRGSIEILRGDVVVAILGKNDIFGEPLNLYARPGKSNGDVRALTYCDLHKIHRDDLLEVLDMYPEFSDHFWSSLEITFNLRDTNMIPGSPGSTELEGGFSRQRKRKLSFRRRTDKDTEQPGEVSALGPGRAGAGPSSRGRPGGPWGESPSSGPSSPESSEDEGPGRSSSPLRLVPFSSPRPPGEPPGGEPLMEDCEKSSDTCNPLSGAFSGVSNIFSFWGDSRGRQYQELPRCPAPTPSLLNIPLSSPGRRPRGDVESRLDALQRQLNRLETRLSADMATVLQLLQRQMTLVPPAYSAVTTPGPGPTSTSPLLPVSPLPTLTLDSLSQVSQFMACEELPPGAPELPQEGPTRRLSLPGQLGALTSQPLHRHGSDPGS

SMILES | hERG current change (%, negative = inhibition) at 10uM
CC/C(=N\NC(=O)CNC(=O)/C=C/c1ccco1)c1ccccc1 | -4.67%
CCc1ccc(C(=O)NNc2ccc(C)c(Cl)c2)cc1 | -0.312%
COc1ccccc1NC(=O)c1ccc(Cl)c(S(=O)(=O)N2CCCCC2)c1 | -18.8%
CCOC(=O)C(C)Sc1nnc(Cc2cc(=O)[nH]c(=O)[nH]2)n1-c1ccc(OCC)cc1 (stereo not shown) | 3.87%
Cc1ccccc1NC(=O)NC1(C(=O)N2CCC(O)CC2)CCCCC1 | 21.6%
COc1ccc(C(=O)OCC(=O)Nc2ccc3[nH]c(=O)[nH]c3c2)c(OC)c1OC | 6.41%
Cc1ccc(S(=O)(=O)NCCC(=O)NCc2ccco2)cc1 | 4.19%
C=CCOc1ccc(/C=C2/C(=N)N3N=C(CC(=O)N4CCCC4)SC3=NC2=O)cc1OC | 18.6%
Cc1cccc(CS(=O)(=O)Cc2ccc(C(=O)N3CCC4(CC3)OCCO4)o2)c1 | 5.83%
O=C(Nc1nccs1)c1ccc(-c2ccccc2[N+](=O)[O-])o1 | -17.8%
Cc1ccccc1Cn1c(=O)n(CCCC(=O)NCc2ccco2)c(=O)c2sccc21 | -31.4%
CC(C)c1cc(NC(=O)c2ccccc2)cc(C(C)C)c1O | -20.4%
Cn1c(=O)c(NCCO)c2c3c(cccc31)C(=O)c1ccccc1-2 | -20.2%
Cc1ccc(S(=O)(=O)N2CCCCC2)cc1NC(=O)C1CC(=O)N(Cc2ccco2)C1 (stereo not shown) | 3.83%
COc1ccc(C(O)c2ncc(C(F)(F)F)cc2Cl)cc1 (stereo not shown) | 9.8%
C/C(=N\NC(=O)C12CCC(C)(C(=O)O1)C2(C)C)c1ccccc1O (stereo not shown) | -48.6%
CS(=O)(=O)N1CCN(C(=O)c2cccnc2)CC1 | 12.1%
CC1CCN(Cc2c(C(=O)N/N=C/c3cc(Cl)ccc3O)nnn2-c2nonc2N)CC1 | 26.2%
CC1CCN(C(=O)CSc2nnc(CNC(=O)c3ccco3)o2)CC1 | 21.2%
NS(=O)(=O)c1cccc(NC(=O)COC(=O)C2(c3cccc(F)c3)CCCC2)c1 | -6.66%
Cc1ccc(NC(=O)C2CC(=O)N(CCc3ccccc3)C2)cc1Cl (stereo not shown) | 5.07%
COCC1COS(=O)(=O)NC1(C)C (stereo not shown) | 4.24%

SMILES | hERG current change (%, negative = inhibition) at 10uM
O=C1c2ccccc2C(=O)N1c1nc2nccc(-c3ccccc3)n2n1 | 9.56%
CCOC(=O)/C(C#N)=C/Nc1ccccc1OC | 0.538%
Cc1[nH]c2ccccc2c1C(=O)C(=O)NCCCc1ccccc1 | -2.91%
CCn1c(P(C)(=O)[O-])nc2cc(NC(=O)c3ccccc3Cl)ccc21.[K+] | 6.96%
O=C(CF)NC(NC(=S)Nc1cccc([N+](=O)[O-])c1)C(Cl)(Cl)Cl (stereo not shown) | 6.12%
Cc1cc(C(=O)OCn2nnc3ccccc3c2=O)c(C)n1-c1ccccc1 | 16.3%
CCC(C)n1c(O)c(/C=N/Nc2ccccc2)c(=O)[nH]c1=S (stereo not shown) | -25.1%
COc1ccc(C)cc1NC(=O)C1CCCN1S(=O)(=O)c1ccccc1F (stereo not shown) | -9.61%
COc1ccc2oc(C(=O)OCC(=O)N(Cc3ccccc3)C(C)(C)C)c(C)c2c1 | 10.5%
CSc1nc(NCc2ccco2)c2sc3nc(C(C)C)c4c(c3c2n1)CC(C)(C)OC4 | 2.32%
Cc1c(NS(=O)(=O)c2ccc(NCC3CCCO3)c([N+](=O)[O-])c2)c(=O)n(-c2ccccc2)n1C (stereo not shown) | -18.9%
COc1cccc(-c2nnc(SCC(=O)Nc3cc(C)on3)o2)c1 | 3.16%
COc1ccc(OCCCC(=O)NCCc2ccccc2)cc1 | -7.79%
CCOc1ccc(-n2c(-c3ccc(OC)cc3)c[n+]3c2CCCCC3)cc1.[Br-] | -76%
Cc1ccc(N2CC(C(=O)N3CCC(C(=O)Nc4nnc(C(C)(C)C)s4)CC3)CC2=O)cc1 (stereo not shown) | -3.37%
NC(=O)c1ccccc1NS(=O)(=O)c1ccc(F)cc1 | 17.4%
Cc1ccnc2nc(C(=O)Nc3nnc(-c4ccccc4)o3)nn12 | 5.4%
COc1ccc(CN2CCNC(=O)C2CC(=O)NCCSc2nccn2C)c(OC)c1 (stereo not shown) | 7.79%
COc1cccc(C(=O)NN2CC(O)=C(c3nc4ccccc4n3C)C2=N)c1 | -6.93%
CCOc1ccc(OCC)c(NC(=O)CCn2c(=O)oc3ccccc32)c1 | -4.3%
Cn1c(CN2CCN(CCO)CC2)c(C#N)c2ccccc21 | -13.9%
